The results in this text go back to PubChem BioAssay AID1159614 (National Center for Advancing Translational Sciences (NCATS), 2016).

Molecules are shown by their SMILES. Among all 45,000 compounds or so, about 65 (0.1%) were called active. Calls come from the whole dose curve; as a rule, active = well fitted activation curve with a large enough effect; inconclusive = small, poorly fitted or top-dose-only effect; inactive = no such curve, though single readings can be large or run the other way. The list shows a part of the results.

This test deals with Galactocerebrosidase (Homo sapiens) (UniProt P54803). The test can be described thus: A Novel Cell-Based Assay to Identify Small Molecules for B -Galactocerebrosidase. Note: 0% is about no effect; nearly all actives have a fitted effect of over 65% in size. To be noted: 145M-Twi-hGALC-G270D cells (Twitcher mouse brain line with human GALC G270D), HMU-beta-Gal fluorescence, 48 h; activation: at the top concentration. The procedure, abridged: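 Fluorescence readout: HMU-β-gal cleavage by mutant GALC (0.1 mM final, citrate/phosphate pH 5.2 with 1 mg/mL taurocholate), stopped with carbonate/bicarbonate plus Triton X-100. Cells: murine Twitcher 145M-Twi expressing human G270D GALC; qHTS for activators.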
In the case of `Cc1cccc(-c2nn3c(=O)cc(CN4CCN(C(=O)COc5ccc(Cl)cc5)CC4)nc3s2)c1`, the “activation” value was inactive: -0.772%.
The result for `CC(C)=CCN1CC[C@@]2(C)c3cc(O)ccc3C[C@@H]1[C@@H]2C` reads inactive: -11.9% [at 114 µM].
For the compound `O=S1(=O)N(Cc2ccccc2Cl)CCCN1Cc1ccccc1Cl`, the “activation” value was inactive: -1.84%.
The result for `COc1ccc(NC(=O)CCc2nc(C3=CCN(Cc4cccc(Cl)c4)CC3)no2)c(OC)c1` reads inactive: -23%; that for `O=C(Nc1ccc2c(c1)OCO2)c1cccn(Cc2cccc([N+](=O)[O-])c2)c1=O`, inactive: -18.7%.
As for `O=[N+]([O-])c1c2ccccc2cc2ccccc12`, the figure is inactive: -12.1% [at 114 µM].
Consider `Cc1ccccc1OCC(=O)N1CCN(CCc2ccccn2)CC1`, for which the “activation” value is inactive: -12.3%.
The result for `C1CN2CCC1CC2` reads inactive: -20.4%; that for `COP(=S)(OC)SCN1C(=O)c2ccccc2C1=O`, inactive: -2.84%; that for `CC1=C2[C@H]3OC(=O)[C@@H](C)[C@@H]3CC[C@@]2(C)C=CC1=O`, inactive: -8.71%.
As for `COc1ccc(OCC(=O)N2CCN(Cc3cc(=O)n4nc(-c5ccc(OC)cc5)sc4n3)CC2)cc1`, the figure is inactive: 2.52%; as for `Cc1cccc(Cn2cccc(C(=O)Nc3ccc(F)cc3F)c2=O)c1`, inactive: -24%.
As for `Cc1ccc(OCC(=O)N2CCN(CCc3ccncc3)CC2)cc1`, the figure is inactive: -10.7%; as for `CC(C)c1ccc(OCC(=O)N2CCN(CCc3ccccn3)CC2)cc1`, inactive: -9.56%; as for `O=C(O)c1ccc2[nH]cc(CCCCN3CC=C(c4ccccc4)CC3)c2c1`, inactive: -13.2%.
As for `COc1ccc(OCC(=O)N2CCN(Cc3ccc(SC)cc3)CC2)cc1`, the “activation” value is inactive: -24.3%.
The result for `CCC(CN)=C(c1ccccc1)c1ccccc1` reads inactive: -12.5%.
The result for `O=[N+]([O-])c1cc([As](=O)(O)O)ccc1O` reads inactive: -16.5%.
The result for `O=C(c1ccc2c(c1)N(Cc1ccc(F)cc1)C(=O)c1ccccc1S2)N1CCC2(CC1)OCCO2` reads inactive: -2.62%; that for `Cc1ccccc1-n1c(/C=C/c2ccc(N(C)C)cc2)nc2ccccc2c1=O`, inactive: -35.8%.
With `Cc1nnc(NC(=O)c2cccn(Cc3cccc(F)c3)c2=O)s1`, the “activation” value is inactive: -9.53%.
In the case of `CCOc1ccc(CC(=O)NCCc2csc3nc(-c4ccccc4F)nn23)cc1`, the “activation” value is inactive: -35.2%.
Take `CC1N=C(N)OC1c1ccccc1` (stereo not drawn): the “activation” value is inactive: 7.25% [at 114 µM].
As for `Cc1ccc(OCC(=O)Nc2ccc(Cl)cc2C(=O)c2ccccc2)cc1C`, the figure is inactive: -5.09%; as for `C[C@]12CC[C@@H]3c4ccc(OC(=O)N(CCCl)CCCl)cc4CC[C@H]3[C@@H]1CC[C@@H]2O`, inactive: -6.75%; as for `CCCCCCCCc1ccc(O)cc1`, inactive: -6.53% [at 114 µM].
As for `COc1cccc(-c2nn3c(=O)cc(CN4CCN(C(=O)COc5ccccc5C)CC4)nc3s2)c1`, the figure is inactive: -9.32%; as for `CCOc1ccc2nc(NC(=O)c3cccn(Cc4ccccc4Cl)c3=O)sc2c1`, inactive: -14.3%.
The result for `CCOc1ccc(CN(CCc2ccc3c(c2)OCO3)Cc2ccc(OC)c(Br)c2)cc1` reads inactive: -20.2%; that for `O=C(O)CCCCCCNC1c2ccccc2CCc2ccccc21`, inactive: -14.8%; that for `COc1cccc2c1C(=O)c1c(O)c3c(c(O)c1C2=O)C[C@@](O)(C(=O)CO)CC3OC1CC(N2CCOC(OC)C2)C(O)C(C)O1` (stereo partly drawn), inactive: -27.2%.
`COP(=S)(OC)Oc1ccc(S(N)(=O)=O)cc1`: the “activation” value was inactive: -6.13%.
The result for `CCN(CC)Cc1nccn1-c1ccc([N+](=O)[O-])cc1C(=O)c1ccccc1Cl` reads inactive: -8.04%; that for `[N-]=[N+]=CC(=O)OC[C@H](N)C(=O)O`, inactive: -8.33%.
The result for `Cc1ccccc1CN1C(=O)C(C)N=C(c2ccccc2)c2ccccc21` (stereo not drawn) reads inactive: -8.65%.
In the case of `Cc1nc2ccccc2c(=O)n1-c1ccccc1Cl`, the “activation” value was inactive: -3.57% [at 114 µM].
The result for `CCC(C)(C)c1ccc(O)cc1` reads inactive: -18.3%; that for `CCCN1CCC[C@@H]2Cc3[nH]ncc3C[C@H]21`, inactive: -13.9%; that for `CC1NCCOC1c1ccccc1` (stereo not drawn), inactive: -10.7%.
The result for `COc1cc(CCN)cc(OC)c1OC` reads inactive: 8.85% [at 129 µM].
As for `COc1ccc(CNC(=O)Cn2c(SCC(=O)Nc3ccc(C)c(C)c3)nc3ccccc32)cc1`, the figure is inactive: -33.9%; as for `C[C@@H]1O[C@@H](O[C@H]2C[C@@H](O)[C@]3(CO)[C@H]4[C@H](O)C[C@]5(C)[C@@H](C6=CC(=O)OC6)CC[C@]5(O)[C@@H]4CC[C@]3(O)C2)[C@H](O)[C@H](O)[C@H]1O`, inactive: -6.17%; as for `CC1Cc2ccccc2N1NC(=O)c1ccc(Cl)c(S(N)(=O)=O)c1` (stereo not drawn), inactive: -12.7%.
On to `C[C@@H](N)[C@@H](O)c1ccccc1`, for which the “activation” value was inactive: -17.6%.
The result for `Cc1ccc(C(=O)Nc2ccccc2)cc1S(=O)(=O)N1CCCC1` reads inactive: -4.9%.
As for `CCC1(c2ccc(N)cc2)CCC(=O)NC1=O` (stereo not drawn), the figure is inactive: -6.27%.
The result for `ClC1=C(Cl)[C@]2(Cl)[C@@H]3[C@@H]4C[C@@H]([C@H]5O[C@@H]45)[C@@H]3[C@@]1(Cl)C2(Cl)Cl` reads inactive: -15.7% [at 114 µM]; that for `O=C(CCCCl)c1ccc(F)cc1`, inactive: -10.5%; that for `CNC(C)Cc1ccc2c(c1)OCO2` (stereo not drawn), inactive: -0.806% [at 129 µM].
Turning to `CCc1cc(OC)c(C[C@H](C)N)cc1OC`, the “activation” value was inactive: -1.03% [at 129 µM].
The result for `NCCc1ccc(O)cc1` reads inactive: -16.4%; that for `CN(C)C(=O)Oc1cc(OC(=O)N(C)C)cc(C(O)CNC(C)(C)C)c1` (stereo not drawn), inactive: -15%; that for `Cc1ccc(C(C)C)c(OCC(=O)N2CCN(CCc3ccncc3)CC2)c1`, inactive: -28.5%.
